In patent publication US20220096598A1 (BEIJING SHUANGYIN BIOTECHNOLOGY, published 2022):

T1: FGF21 co-receptor (β-klotho) (UniProt Q86Z14 1-1044, limits assumed)
T1 sequence (looked up): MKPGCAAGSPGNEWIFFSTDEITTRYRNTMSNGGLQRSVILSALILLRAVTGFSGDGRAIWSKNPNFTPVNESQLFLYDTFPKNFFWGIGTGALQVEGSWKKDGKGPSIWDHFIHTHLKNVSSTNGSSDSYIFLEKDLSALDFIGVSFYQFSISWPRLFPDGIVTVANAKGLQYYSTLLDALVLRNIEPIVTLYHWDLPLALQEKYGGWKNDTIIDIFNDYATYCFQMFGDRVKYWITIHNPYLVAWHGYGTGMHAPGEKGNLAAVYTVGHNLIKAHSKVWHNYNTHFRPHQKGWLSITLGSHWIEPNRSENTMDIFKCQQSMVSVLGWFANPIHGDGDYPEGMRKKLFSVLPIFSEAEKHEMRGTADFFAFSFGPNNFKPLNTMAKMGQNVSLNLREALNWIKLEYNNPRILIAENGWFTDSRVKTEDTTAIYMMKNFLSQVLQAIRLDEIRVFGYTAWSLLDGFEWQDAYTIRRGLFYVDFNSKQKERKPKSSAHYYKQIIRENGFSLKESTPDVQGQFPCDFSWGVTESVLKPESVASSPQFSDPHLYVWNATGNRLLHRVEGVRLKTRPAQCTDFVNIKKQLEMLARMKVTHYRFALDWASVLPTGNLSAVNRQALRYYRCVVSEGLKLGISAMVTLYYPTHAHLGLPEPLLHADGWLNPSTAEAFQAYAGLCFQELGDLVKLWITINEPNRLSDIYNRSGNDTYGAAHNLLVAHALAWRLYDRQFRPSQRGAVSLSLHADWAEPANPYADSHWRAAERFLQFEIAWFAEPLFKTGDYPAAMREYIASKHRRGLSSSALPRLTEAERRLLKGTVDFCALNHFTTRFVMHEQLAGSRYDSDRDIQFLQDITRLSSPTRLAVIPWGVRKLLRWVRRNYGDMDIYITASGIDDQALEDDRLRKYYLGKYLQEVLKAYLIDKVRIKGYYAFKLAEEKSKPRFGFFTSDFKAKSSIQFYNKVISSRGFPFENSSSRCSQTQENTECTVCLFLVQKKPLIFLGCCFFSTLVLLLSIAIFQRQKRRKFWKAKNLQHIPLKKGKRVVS


How the values were obtained:
GLP1 receptor = GLP1 receptor (UniProt P43220 24-463, limits assumed); test: cell-based or functional assay
[1] = target: T1, FGF21 co-receptor (β-klotho); test: cell-based or functional assay

EC50 (nM), luciferase expression in HEK293-GLP1R/β-klotho/CRE-Luciferase cells (GLP1 receptor) | EC50 (nM), luciferase expression in HEK293-GLP1R/β-klotho/CRE-Luciferase cells [1] | Binder
2.46 nM | 2.46 nM | G-L-Fc-L-Fv5 (Fc fusion) HGEGTFTSDVSSYLEEQAAKEFIAWLVKGGGGGGGSGGGGSGGGGSA[omitted - human IgG4 Fc with S228P F234A L235A (EU numbers)]GGGGSGGGGSGGGGSDSSPLLQFGGQVRQVYLYTDDAQQTEAHLEIREDGTVGGAADQSPESLLQLKALKPGVIQILGVKTSRFLCQRPDGALYGSLHFDPEACSFRELLLEDGYNVYQSEAHGLPLHCPGNKSPHRDPAPRGPCRFLPLPGLPPALPEPPGILAPQPPDVGSSDPLSMVGGSQGRSPSYES
2.87 nM | 2.87 nM | G-L-Fc-L-Fv3 (Fc fusion) HGEGTFTSDVSSYLEEQAAKEFIAWLVKGGGGGGGSGGGGSGGGGSA[omitted - human IgG4 Fc with S228P F234A L235A (EU numbers)]GGGGSGGGGSGGGGSDSSPLLQFGGQVRQVYLYTDDAQQTEAHLEIREDGTVGGAADQSPESLLQLKALKPGVIQILGVKTSRFLCQRPDGALYGSLHFDPEACSFRELLLEDGYNVYQSEAHGLPLHCPGNKSPHRDPAPRGPCRFLPLPGLPPALPEPPGILAPQPPDVGSSDPLSMVGGSQGRSPSYAS
3.25 nM | 3.25 nM | G-L-Fc-L-Fv4 (Fc fusion) HGEGTFTSDVSSYLEEQAAKEFIAWLVKGGGGGGGSGGGGSGGGGSA[omitted - human IgG4 Fc with S228P F234A L235A (EU numbers)]GGGGSGGGGSGGGGSDSSPLLQFGGQVRQVYLYTDDAQQTEAHLEIREDGTVGGAADQSPESLLQLKALKPGVIQILGVKTSRFLCQRPDGALYGSLHFDPEACSFRERLLEDGYNVYQSEAHGLPLHLPGNKSPHRDPAPRGPARFLPLPGLPPALPEPPGILAPQPPDVGSSDPLSMVGGSQGRSPSYES
3.95 nM | 3.95 nM | G-L-Fc-L-Fv2 (Fc fusion) HGEGTFTSDVSSYLEEQAAKEFIAWLVKGGGGGGGSGGGGSGGGGSA[omitted - human IgG4 Fc with S228P F234A L235A (EU numbers)]GGGGSGGGGSGGGGSDSSPLLQFGGQVRQRYLYTDDAQQTEAHLEIREDGTVGGAADQSPESLLQLKALKPGVIQILGVKTSRFLCQRPDGALYGSLHFDPEACSFRELLLEDGYNVYQSEAHGLPLHCPGNKSPHRDPAPRGPCRFLPLPGLPPALPEPPGILAPQPPDVGSSDPLSMVGGSQGRSPSYAS
